{"source": "PubChem BioAssay AID504339", "about": "(National Center for Advancing Translational Sciences (NCATS), 2011)", "note": "About 17,000 (4.4%) of roughly 390,000 compounds were called active. This list was built around the results that the source calls inconclusive (neither active nor inactive); the mix of calls is not that of the screen. Calls follow the shape of the dose curve; as a rule, active = well fitted inhibition curve with a large enough effect; inconclusive = small, poorly fitted or top-dose-only effect; inactive = no such curve, though single readings can be large or run the other way. Potencies beside an inconclusive call are fits to weak or partial responses and may not hold up. % is scaled to controls: 0 for no effect and ±100 for the full control effect; potency is read from the fitted curve at half-maximal effect; tags tell the direction and shape of the fitted curve.", "data": [{"target": "Lysine-specific demethylase 4A (Homo sapiens) (UniProt O75164)", "sequence (O75164 whole entry, looked up, the tested form may be a part)": "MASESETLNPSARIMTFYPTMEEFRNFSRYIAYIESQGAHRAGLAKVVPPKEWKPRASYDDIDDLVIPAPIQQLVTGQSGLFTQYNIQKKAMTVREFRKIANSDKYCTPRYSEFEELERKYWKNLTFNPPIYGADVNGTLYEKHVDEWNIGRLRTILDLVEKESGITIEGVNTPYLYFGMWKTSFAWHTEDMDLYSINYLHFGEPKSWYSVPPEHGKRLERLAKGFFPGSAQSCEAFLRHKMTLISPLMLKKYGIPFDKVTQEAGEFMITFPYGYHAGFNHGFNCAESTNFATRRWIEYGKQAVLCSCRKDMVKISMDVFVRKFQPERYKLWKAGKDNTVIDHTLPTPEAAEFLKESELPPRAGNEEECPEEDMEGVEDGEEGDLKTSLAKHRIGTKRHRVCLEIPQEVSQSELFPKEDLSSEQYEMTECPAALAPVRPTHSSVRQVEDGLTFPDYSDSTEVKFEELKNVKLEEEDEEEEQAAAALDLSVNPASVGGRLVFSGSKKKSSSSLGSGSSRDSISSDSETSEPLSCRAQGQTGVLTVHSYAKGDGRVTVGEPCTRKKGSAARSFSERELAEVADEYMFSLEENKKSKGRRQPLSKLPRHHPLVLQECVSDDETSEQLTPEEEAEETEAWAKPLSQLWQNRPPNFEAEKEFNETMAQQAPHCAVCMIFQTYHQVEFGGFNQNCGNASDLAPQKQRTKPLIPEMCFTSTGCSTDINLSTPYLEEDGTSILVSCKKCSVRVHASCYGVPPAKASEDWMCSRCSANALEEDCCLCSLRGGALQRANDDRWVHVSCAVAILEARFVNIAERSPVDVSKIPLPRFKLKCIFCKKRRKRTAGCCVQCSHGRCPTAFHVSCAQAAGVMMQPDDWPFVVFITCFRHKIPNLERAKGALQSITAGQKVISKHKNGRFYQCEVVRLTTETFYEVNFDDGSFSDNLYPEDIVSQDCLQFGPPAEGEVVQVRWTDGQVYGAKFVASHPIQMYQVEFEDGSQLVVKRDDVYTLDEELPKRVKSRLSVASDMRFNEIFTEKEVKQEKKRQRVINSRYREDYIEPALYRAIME", "test": "qHTS Assay for Inhibitors of JMJD2A-Tudor Domain; also: nearly all actives have a fitted effect of over 50% in size", "conditions": "AlphaScreen JMJD2A-Tudor / H3K4me3 peptide binding; activity change, negative = inhibition: at 114 µM (top of the series)", "values": [{"smiles": "CC(C)n1c(O)c(N=NC(=O)CNC(=O)Cc2ccc(Cl)cc2)c2ccccc21", "Potency": "inconclusive: 44.7 µM [inhibitor, partial curve]"}, {"smiles": "COc1ccc(S(=O)(=O)NNC(=O)Cc2csc(C)n2)cc1[N+](=O)[O-]", "Potency": "inconclusive: 50.1 µM [inhibitor, partial curve]"}, {"smiles": "Cc1c(Cl)cccc1NC(=S)N(Cc1cccs1)C1CCCC1", "activity change, negative = inhibition": "inactive: 16.8%"}, {"smiles": "Nc1cc(-c2nn[nH]n2)ccc1F", "Potency": "inconclusive: 79.4 µM [inhibitor, single point]"}, {"smiles": "COc1cccc(CNC(=O)CCNC(=O)c2ccc(Br)o2)c1", "Potency": "inconclusive: 25.1 µM [inhibitor, single point]"}, {"smiles": "CCc1ccc(C(=O)NNC(=O)[C@H](C)NC(=O)c2ccco2)cc1", "activity change, negative = inhibition": "inactive: -12.3%"}, {"smiles": "C/C(CC(C)C)=N\\NS(=O)(=O)c1ccc(C)c([N+](=O)[O-])c1", "Potency": "inconclusive: 39.8 µM [inhibitor, full curve, poor fit]"}, {"smiles": "C=CCN1c2ccccc2[C@]23C[C@@H](C(=O)OC)N(C(=O)c4cccs4)C2=NC(C(=O)OC)=C(C(=O)OC)[C@H]13", "Potency": "inconclusive: 63.1 µM [inhibitor, partial curve]"}, {"smiles": "Cc1ccc(OCC(=O)Nc2ccc(NC(=O)c3ccco3)cc2)c(C)c1", "Potency": "inconclusive: 44.7 µM [inhibitor, partial curve]"}, {"smiles": "Cc1cccc(CSc2nnc(-c3ccccn3)n2N)c1", "Potency": "active: 50.1 µM"}, {"smiles": "O=C(Cc1ccc(NC(=O)C2CCCN(C(=O)C3CCCCC3)C2)cc1)Nc1cccc(C(=O)N2CCCC2)c1", "note": "(centres undefined)", "Potency": "inconclusive: 89.1 µM [inhibitor, partial curve]"}, {"smiles": "COc1ccc(NC(=O)CSc2ccc3nnc(-c4cccnc4)n3n2)c(OC)c1", "activity change, negative = inhibition": "inactive: -9.42%"}, {"smiles": "COc1ccc(Nc2nc(C)c3ccccc3n2)cc1", "Potency": "inconclusive: 89.1 µM [inhibitor, single point]"}, {"smiles": "C#CCOc1c(Br)cc(C2C(C(=O)OC)=C(C)NC3=C2C(=O)c2ccccc23)cc1OCC", "note": "(centres undefined)", "Potency": "active: 11.2 µM"}, {"smiles": "Cc1ccccc1NC(=O)Cn1nnc(C(=O)NCc2ccco2)c1N", "Potency": "inactive"}, {"smiles": "CCCN(CCC)CCCNC(=S)Nc1ccc2nc(N3CCCC3)cc(C)c2c1", "Potency": "inconclusive: 89.1 µM [inhibitor, partial curve, poor fit]"}, {"smiles": "CCn1c(=O)c(C(=O)CN2CCCc3ccccc32)c(N)n(Cc2ccccc2)c1=O", "Potency": "active: 35.5 µM"}, {"smiles": "COc1ccccc1NC(=O)CSc1ncc(CO)n1Cc1ccc(F)cc1", "Potency": "inconclusive: 15.8 µM [inhibitor, full curve]"}, {"smiles": "CC(C)(C)c1ccc(C(=O)NC(=S)NNC(=O)COc2ccccc2)cc1", "Potency": "inconclusive: 50.1 µM [inhibitor, partial curve]"}, {"smiles": "COc1ccc(/C=C/C2=Nc3ccccc3NC(C)(C)C2)cc1OC", "Potency": "inconclusive: 56.2 µM [inhibitor, partial curve, poor fit]"}, {"smiles": "CNC(=S)NCc1ccc2[nH]c(C)cc2c1", "Potency": "inconclusive: 79.4 µM [inhibitor, partial curve]"}, {"smiles": "COc1ccc2ncc3c(-c4ccccc4)nn(-c4ccc(C)c(C)c4)c3c2c1", "Potency": "inconclusive: 89.1 µM [inhibitor, partial curve]"}, {"smiles": "COc1ccc(Cl)cc1NC(=O)CN1CCC(n2nnc3cc(F)ccc32)CC1", "activity change, negative = inhibition": "inactive: -7.87% [at 57.1 µM]"}, {"smiles": "Cc1cc(-c2ccccc2)nc2cc(C(=O)Nc3ccc(Cl)c(Cl)c3)nn12", "Potency": "inconclusive: 100 µM [inhibitor, single point]"}, {"smiles": "CNC(=O)c1c(C)noc1C", "activity change, negative = inhibition": "inactive: -6.84%"}, {"smiles": "COc1cccc(CN2CCN(C(=O)c3cccs3)CC2)c1OC", "activity change, negative = inhibition": "inactive: -12.8%"}, {"smiles": "C=CCn1c(C(CC(C)C)CC(C)O)n[nH]c1=S", "note": "(centres undefined)", "Potency": "active: 8.91 µM"}, {"smiles": "COc1ccc(Cl)cc1NC(=O)c1c(NCc2cccnc2)sc2c1CCCC2", "Potency": "inconclusive: 25.1 µM [inhibitor, full curve]"}, {"smiles": "Cn1c(-c2ccccn2)[n+](C)c2ccccc21", "Potency": "inconclusive: 28.2 µM [inhibitor, single point]"}, {"smiles": "COc1cc(C=Nc2cccc(C)c2)c(O)c([N+](=O)[O-])c1", "Potency": "inconclusive: 70.8 µM [inhibitor, single point]"}, {"smiles": "O=C(CSc1nnnn1-c1ccc(F)cc1F)Nc1ccccc1F", "activity change, negative = inhibition": "inactive: -0.685%"}, {"smiles": "CCOC(=O)c1c(Nc2ccc(OCC)cc2)nnc(-c2ccccc2)c1-c1ccccc1", "Potency": "inconclusive: 25.1 µM [inhibitor, full curve]"}, {"smiles": "CN1CCc2c(sc(NC(=O)C3CCCCC3)c2C(N)=O)C1", "activity change, negative = inhibition": "inactive: -12%"}, {"smiles": "O=C(NCCCn1ccnc1)c1cc(-c2ccc(Cl)cc2)nc2ccccc12", "Potency": "inconclusive: 79.4 µM [inhibitor, partial curve]"}, {"smiles": "O=C(Nc1ccc(-c2nnc(-c3ccccc3)o2)cc1)C(F)(F)F", "Potency": "inconclusive: 56.2 µM [inhibitor, partial curve, poor fit]"}, {"smiles": "CCOC(=O)c1[nH]c2c(c1C)C(=O)CC(c1ccco1)C2", "note": "(centres undefined)", "Potency": "active: 56.2 µM"}, {"smiles": "CC(=O)Oc1cccc2c1C(=O)c1c(OC(C)=O)cc(C(=O)O)cc1C2=O", "Potency": "inconclusive: 79.4 µM [inhibitor, single point]"}, {"smiles": "NC(=O)CCCCC(=O)OCCCc1cccs1", "Potency": "active: 89.1 µM"}, {"smiles": "COc1ccc2c(c1O)Cc1ccccc1C2=O", "Potency": "inconclusive: 63.1 µM [inhibitor, partial curve, poor fit]"}, {"smiles": "CCOc1ccc(/C(O)=C2/C(=O)C(=O)N(c3ccccn3)C2c2ccc(Cl)cc2)c(C)c1", "note": "(centres undefined)", "Potency": "inconclusive: 63.1 µM [inhibitor, single point]"}, {"smiles": "CC(C)N(CCNCc1nnc(-c2ccccc2)o1)C(C)C", "Potency": "inconclusive: 79.4 µM [inhibitor, single point]"}, {"smiles": "Cc1cccc(C(=O)NC(=S)NNC(=O)COc2ccc(Cl)cc2)c1", "Potency": "inconclusive: 100 µM [inhibitor, partial curve]"}, {"smiles": "CCOc1ccc(NCc2cccn2-c2nnc(N3CCC(C(=O)NCCc4ccc(OCC)c(OCC)c4)CC3)s2)cc1", "Potency": "inconclusive: 14.1 µM [inhibitor, full curve]"}, {"smiles": "Cc1noc(C)c1CSc1nnc(-c2ccccc2)n1N", "Potency": "inconclusive: 56.2 µM [inhibitor, partial curve]"}, {"smiles": "COc1ccccc1-c1nnc2n1N=C(c1ccc(O)c(O)c1)CS2", "Potency": "inconclusive: 11.2 µM [inhibitor, full curve]"}, {"smiles": "Cc1cc(S(=O)(=O)N2CCOCC2)ccc1OCC(=O)NCc1ccco1", "Potency": "inconclusive: 89.1 µM [inhibitor, single point]"}, {"smiles": "O=C(Cc1ccccc1)NN1C(=O)/C(=C/c2ccc(C(=O)O)cc2)SC1=S", "activity change, negative = inhibition": "inactive: -16.9% [at 11.4 µM]"}, {"smiles": "COc1ccc(C(=O)CNc2ccccc2Br)cc1", "activity change, negative = inhibition": "inactive: 54.2%"}, {"smiles": "Cc1nc(-c2ccc(S(=O)(=O)N3CCN(c4ccccc4)CC3)cc2)co1", "activity change, negative = inhibition": "inactive: -7.36%"}, {"smiles": "N#CCC(=O)NNC(=S)NC(=O)C(c1ccccc1)c1ccccc1", "activity change, negative = inhibition": "inactive: -14.1%"}, {"smiles": "O=C(NCc1ccc2c(c1)OCO2)C(=S)N1CCOCC1", "activity change, negative = inhibition": "inactive: -4.79%"}, {"smiles": "Cc1ccc2nc3sc(C(=O)Nc4ccc(F)cc4)cc3cc2c1", "Potency": "active: 39.8 µM"}, {"smiles": "CCOC(=O)c1cc(S(=O)(=O)N2CCN(c3cccc(C)c3)C(C)C2)[nH]n1", "note": "(centres undefined)", "Potency": "inconclusive: 50.1 µM [inhibitor, partial curve]"}, {"smiles": "Cc1ccc(S(=O)(=O)N(OCc2ccccc2)C(C)C(=O)O)cc1", "note": "(centres undefined)", "activity change, negative = inhibition": "inactive: 7.93%"}, {"smiles": "O=C1CSC(c2ccccn2)N1c1ccccc1F", "note": "(centres undefined)", "activity change, negative = inhibition": "inactive: -13.5%"}, {"smiles": "C/C=C1\\COC(C(=O)NCCN2CCOCC2)(C(F)(F)F)C=C1C=C(C)C", "note": "(centres undefined)", "activity change, negative = inhibition": "inactive: -18.6%"}, {"smiles": "O=C(NCc1cccnc1)c1ccc2c(=O)n(CCCN3CCCC3=O)c(=S)[nH]c2c1", "Potency": "inconclusive: 89.1 µM [inhibitor, single point]"}, {"smiles": "CCC1=Nc2cc(C(=O)NC3CCCC3)ccc2Sc2ccc(Cl)cc21", "activity change, negative = inhibition": "inactive: -12%"}, {"smiles": "CCCC1CC(C)(c2csc(Nc3ccc(OCC)cc3)n2)OC1=O", "note": "(centres undefined)", "Potency": "inconclusive: 39.8 µM [inhibitor, partial curve]"}, {"smiles": "CC(C)NC(=O)CSc1nnc(-c2ccncc2)n1-c1ccccc1", "activity change, negative = inhibition": "inactive: -18.2%"}, {"smiles": "Cc1cccc(CNCc2ccccc2)c1", "activity change, negative = inhibition": "inactive: -5.32% [at 57.1 µM]"}, {"smiles": "CN(CC(=O)N1CCCCC1)S(=O)(=O)c1cccc2cccnc12", "activity change, negative = inhibition": "inactive: 0.69%"}, {"smiles": "COc1ccccc1N1CCN(/N=C/c2ccc(Cl)c([N+](=O)[O-])c2)CC1", "Potency": "inconclusive: 35.5 µM [inhibitor, partial curve]"}, {"smiles": "COc1ccc(N2CCN(CCC(=O)c3ccc4ccccc4c3)CC2)cc1", "Potency": "inconclusive: 14.1 µM [inhibitor, full curve]"}, {"smiles": "CCc1nc2c(sc3nc4c(cc32)COC(C)(C)C4)c(=O)n1Cc1ccccc1", "activity change, negative = inhibition": "inactive: -22.2%"}, {"smiles": "COc1ccc(C(=S)N2CCN(c3ccccc3C)CC2)cc1OC", "Potency": "inconclusive: 25.1 µM [inhibitor, full curve]"}, {"smiles": "COCc1cc(C)nc(OCC(=O)N/N=C\\c2cc(C)n(-c3cccc(C(F)(F)F)c3)c2C)c1C#N", "Potency": "inconclusive: 56.2 µM [inhibitor, partial curve]"}, {"smiles": "CC1CCC2C(C1)Nc1c(C(=O)O)cccc1C2(C)C", "note": "(centres undefined)", "activity change, negative = inhibition": "inactive: -28.2%"}, {"smiles": "CC(C)COc1cccc(C(=O)Nc2cc(S(=O)(=O)N3CCOCC3)ccc2N2CCCC2)c1", "activity change, negative = inhibition": "inactive: -34.6%"}, {"smiles": "CC1CCC(=O)N(CCOc2ccccc2)CC1", "note": "(centres undefined)", "Potency": "inconclusive: 17.8 µM [inhibitor, full curve]"}, {"smiles": "CCOc1ccc(C(=O)OCC(=O)N2CC(C)OC(C)C2)cc1OCC", "note": "(centres undefined)", "activity change, negative = inhibition": "inactive: -2.76%"}, {"smiles": "O=c1c2ccccc2oc2ccc(NCCCn3ccnc3)cc12", "Potency": "inconclusive: 39.8 µM [inhibitor, full curve, poor fit]"}, {"smiles": "N#CC(C#N)=C1C=CC=CN1/C(=C\\c1ccco1)C(=O)c1ccc(Cl)cc1", "Potency": "inconclusive: 50.1 µM [inhibitor, partial curve]"}, {"smiles": "CCc1ccc(NC(=O)CS(=O)CC(=O)NCCCc2ccccc2)cc1", "note": "(centres undefined)", "Potency": "inconclusive: 79.4 µM [inhibitor, partial curve]"}]}]}
